Consider 14 molecules from PMC12136788.

Some of the results follow.

T1: UNK ZnF1-3 (human, UniProt Q9C0B0 31-174)
T1 sequence: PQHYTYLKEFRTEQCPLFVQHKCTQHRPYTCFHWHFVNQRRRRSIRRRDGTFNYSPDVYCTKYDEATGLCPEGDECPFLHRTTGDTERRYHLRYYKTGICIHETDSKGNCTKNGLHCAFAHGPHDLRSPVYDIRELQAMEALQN

B1: chr1:39494447:39494448:+_ENSG00000168653_ENST00000372967|hu_mus|hu_hu_hu_mus_False|1_68 (ssRNA)
RNA: GGGAGUUCUACAGUCCGACGAUCGCACCGAGCGGCGUUCUUAUAGGGCUGUUCUGCGCUUAGGAACGUCAACCAUCGGUCCAGGCUGAUGCCCAGCUUUUUCUGUAUGUCAAGGAAAGGCAUGGCUCUGCAGUGCCCCCUUGACAACAGAGGAUUGAGCAUCA
B2: chr9:51871721:51871722:+_ENSMUSG00000032050_ENSMUST00000163153|mus_mus|FALSE|FALSE (ssRNA)
RNA: GGGAGUUCUACAGUCCGACGAUCUGUUUUUACAACCUGGUCAAAAAGUUGUUUGCCAGUUGUAUUGGGCUGGAUGGCAAAUUCUAGCUCAGCGUCCAUUGUAGUUACUCUUACAUUGAUUGGCUUCGGCAUUUUCUUUUUCUUCAACAGAGGAUUGAGCAUCA
B3: 82431812_82432152_2352_CDS_ENSG00000117114_ENST00000335786|human|control|control (ssRNA)
RNA: GGGAGUUCUACAGUCCGACGAUCUGCAUUUUCUGUACUAAGGAACUGUCCCAGGCUCCGGUAAAUGAUGAACACCAACUUUGCAAGCCCAUUCCUGCUGUUCUGUUUGACGGUAUUUGCGGACAGUUGGAUUGAGCUGCCUGCCAACAGAGGAUUGAGCAUCA
B4: chr7:149068622:149068623:-_ENSMUSG00000025139_ENSMUST00000001950|mus_hu|mus_mus_mus_hu_False|28_38 (ssRNA)
RNA: GGGAGUUCUACAGUCCGACGAUCGUGAGGCCUCUGAGUGUGGCUUGUGGUCUGUCCUGGGUUAGAGUUGUUAAUAUCACGGAACAUACCAUCUAGAGAGGUUCUGCCUGCCUGACUACCUUCAUUCCCAAUGGAGAAGAAAUCCAACAGAGGAUUGAGCAUCA
B5: chr2:217001844:217001845:+_ENSG00000079246_ENST00000392132|hu_hu|hu_hu_hu_mus_False|58_68 (ssRNA)
RNA: GGGAGUUCUACAGUCCGACGAUCACCAACUUGAGGAUUAGAUCUUUUGUCAUAAGCAUAUCGGACGAUGGCCACCAUGUCUAAGUCAUCCAAAGCAUGAACGAGAGAGGAAAGGGCAACAGCUGCCGCCUCAUCAUCCUUUGCCAACAGAGGAUUGAGCAUCA
B6: chr3:169712149:169712150:+_ENSG00000008952_ENST00000337002|hu_hu|motif|central (ssRNA)
RNA: GGGAGUUCUACAGUCCGACGAUCUUAAUUCAAACACUUAGAUGAGAAACAGCCUAAAGCAAAGACUGACAUACACGGCCGGUUUCAACCACAAAGCAAGAUGCUCUCACUGUGACUGAAGAAAAAUCAUUUAAUAUUCAUUAUCAACAGAGGAUUGAGCAUCA
B7: chr2:120799606:120799607:+_ENSG00000115109_ENST00000263713|hu_mus|FALSE|FALSE (ssRNA)
RNA: GGGAGUUCUACAGUCCGACGAUCAUACAUGAUUUGGUCAAACAGCUCCUGUCCUUUGGCUUUUUUCGGCAAGUCCACACUGACAUCUGUACCGUCCAGAAGGGACACCCUGCAUGUGAUGAUGGACUUGGCAUCCCCAGCGGCCAACAGAGGAUUGAGCAUCA
B8: chr4:132324321:132324322:+_ENSMUSG00000028884_ENSMUST00000102561|mus_mus|FALSE|FALSE (ssRNA)
RNA: GGGAGUUCUACAGUCCGACGAUCCACAUCCUGGUCGCAGUUCUCCGGAGAGAGCGGCCCAAGACGCUCGGACACGAAAACUAAGAACACUUGGGAACUCUGUGCCGCUCUGGCGUGGCAGCCUUCUGGCUACUUUGCACUGGCCAACAGAGGAUUGAGCAUCA
B9: 79327576_79327696_2732_ncRNA_ENSMUSG00000035835_ENSMUST00000166057|mouse|control|control (ssRNA)
RNA: GGGAGUUCUACAGUCCGACGAUCAUCCCCAUCACAGUUUUGCCAGGCUUAGUCCUGGUACCUCCUGGCCUGCAUCCUCCUAUAAUAACUUUCUGCCUCAGCCUCCACUUCUCUCUCUGCCAGCCCGCCCACCUGGCGCCUUAGCAACAGAGGAUUGAGCAUCA
B10: chr8:95530139:95530140:-_ENSG00000164944_ENST00000437199|hu_hu|FALSE|FALSE (ssRNA)
RNA: GGGAGUUCUACAGUCCGACGAUCAACAUCACUGGAAGACUGAACCACCACCAAAAUAAGUAUGCAUGCGUAAUUAUAAGCUACUGACUUCUUAGAUUUGGAAUCACCCAAGGCUUCUUUGGAAUAGUACUCCAUUAGAGUAAUCAACAGAGGAUUGAGCAUCA
B11: 30840609_30844903_216_CDS_ENSMUSG00000025607_ENSMUST00000048774|mouse|control|control (ssRNA)
RNA: GGGAGUUCUACAGUCCGACGAUCUUGAAACAAUCGAGUCAUUGCAAAGAAGGCUUCUGUAGCUUCCAUAGUUCCGAAGUGUUCACCCUGGUUGAGUAAGUAAAGAAUCUUUGUCAAGAUAUGCAAGCAUCUUCUUGGAUUGAUCAACAGAGGAUUGAGCAUCA
B12: chr16:94690093:94690094:+_ENSMUSG00000040785_ENSMUST00000117648|mus_hu|mus_mus_mus_hu_True|78_108 (ssRNA)
RNA: GGGAGUUCUACAGUCCGACGAUCGGGGACUCCUGUGGGACACACAGCCUCGAUUCCGGUAAAAAAAAGUCUUAGUCGAUACUAAUUAAAAAGUGUUAAUGAUUUUUGAAAAUCAGAUUACAUCUAUAAAAGAUGAAAAGCAAACAACAGAGGAUUGAGCAUCA
B13: chr17:38438176:38438177:+_ENSG00000171475_ENST00000323571|hu_hu|FALSE|FALSE (ssRNA)
RNA: GGGAGUUCUACAGUCCGACGAUCCACCUUGACCACAUGGCCAGGGACUGAGAUUCAAUGGGGAAAGAAAGACUGUAGCUGGAAUGUGAAGAAUUUGAUUUGCAGUUGAUUGCAGGUUGGGUUUCCGGAAGGGCAGACAGCUCACAACAGAGGAUUGAGCAUCA
B14: chr4:42069135:42069136:+_ENSG00000014824_ENST00000513699|hu_mus|FALSE|FALSE (ssRNA)
RNA: GGGAGUUCUACAGUCCGACGAUCAGCCGCUAUUAUCACUCCUAAGACAGCUGCAGUGUCCUCCAAUAGAAUAACAUUUGUACUCGGAUCACGACUUUCCAUGACAUACUUAUAAAAUGUCGUGCCCUUGGCCUGCGCGCUCCUCAACAGAGGAUUGAGCAUCA

This test has as its target T1, UNK ZnF1-3. As to the kind of experiment: nsRBNS (natural sequence RNA bind-n-seq); RBNS binding buffer (assumed for nsRBNS): 25 mM Tris pH 7.5, 150 mM KCl, 3 mM MgCl2, 0.01% Triton X-100, 500 ug/ml BSA, 20 U/ml SUPERase-In, 4 C; UNK is unkempt and MSI1 is Musashi-1; names of the RNAs are library labels; protein concentration not given here; high values mean tight binding.
In the case of B1, the binding signal is 0.521 enrichment R.

For B2, the binding signal was 0.374 enrichment R.

Molecule B3 displayed a binding signal of 1.02 enrichment R.

B4 displayed a binding signal of 0.763 enrichment R.

Molecule B5 returned a binding signal of 1.81 enrichment R.

Regarding B6, the binding signal came out at 1.4 enrichment R.

B7 returned a binding signal of 0.835 enrichment R.

In turn, B8 gave a binding signal of 0.674 enrichment R.

Molecule B9 displayed a binding signal of 1.33 enrichment R.

In turn, B10 had a binding signal of 2.06 enrichment R.

On to B11, for which the binding signal amounted to 1.31 enrichment R.

In turn, B12 showed a binding signal of 1.92 enrichment R.

Molecule B13 came in with a binding signal of 1.91 enrichment R.

The molecule B14 registered a binding signal of 1.78 enrichment R.
